# Some of the results follow.
# B1: GNAT (Pseudomonas aeruginosa), Q9HV14 (protein)
# chain: MQLSHRPAETGDLETVAGFPQDRDELFYCYPKAIWPFSVAQLAAAIAERRGSTVAVHDGQVLGFANFYQWQHGDFCALGNMMVAPAARGLGVARYLIGVMENLAREQYKARLMKISCFNANAAGLLLYTQLGYQPRAIAERHDPDGRRVALIQMDKPLEP
# What was measured:
# Experiment in all cases: glycan array binding signal (z-score within array); higher = stronger binding
# Details in all cases: glycan notation: IUPAC condensed, linker removed
# [1] = target: GlcNAc(b1-3)Gal(b1-4)Glc
# Procedure, shortened: (§1)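 Arrays were curated from the Consortium for Functional Glycomics database, 3228 in total, and kept only where the protein sequence was available. Binding is expressed as a within-array Z-score. This score was averaged across arrays of the same protein sequence at different concentrations or buffers and across linkers, and negative values can be read as non-binding.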
# [2] = target: GlcNAc(b1-3)Gal(b1-4)GlcNAc
# Procedure, shortened: as §1
# [3] = target: GlcNAc(b1-3)Gal(b1-4)GlcNAc(b1-3)Gal(b1-4)GlcNAc
# Procedure, shortened: as §1
# [4] = target: GlcNAc(b1-3)GalNAc
# Procedure, shortened: as §1
# [5] = target: GlcNAc(b1-3)Man
# Procedure, shortened: as §1
# [6] = target: GlcNAc(b1-3)[GlcNAc(b1-4)][GlcNAc(b1-6)]GlcNAc
# Procedure, shortened: as §1
# [7] = target: GlcNAc(b1-3)[GlcNAc(b1-6)]Gal(b1-4)GlcNAc
# Procedure, shortened: as §1
# [8] = target: GlcNAc(b1-3)[GlcNAc(b1-6)]GalNAc
# Procedure, shortened: as §1
# [9] = target: GlcNAc(b1-4)Gal(b1-4)GlcNAc
# Procedure, shortened: as §1
# [10] = target: GlcNAc(b1-4)GlcNAc
# Procedure, shortened: as §1
# [11] = target: GlcNAc(b1-4)GlcNAc(b1-4)GlcNAc
# Procedure, shortened: as §1
# [12] = target: GlcNAc(b1-4)GlcNAc(b1-4)GlcNAc(b1-4)GlcNAc(b1-4)GlcNAc
# Procedure, shortened: as §1
# [13] = target: GlcNAc(b1-4)GlcNAc(b1-4)GlcNAc(b1-4)GlcNAc(b1-4)GlcNAc(b1-4)GlcNAc
# Procedure, shortened: as §1
# [14] = target: GlcNAc(b1-4)[GlcNAc(b1-6)]GalNAc
# Procedure, shortened: as §1
# [15] = target: GlcNAc(b1-6)Gal(b1-4)GlcNAc
# Procedure, shortened: as §1
# [16] = target: GlcNAc(b1-6)GalNAc
# Procedure, shortened: as §1
# [17] = target: GlcNAc3Prop(b1-4)GlcNAc
# Procedure, shortened: as §1
# [18] = target: GlcNAc6S(b1-3)Gal(b1-4)GlcNAc
# Procedure, shortened: as §1
# [19] = target: Kdn(a2-3)Gal(b1-3)GalNAc
# Procedure, shortened: as §1
# [20] = target: Kdn(a2-3)Gal(b1-3)GlcNAc
# Procedure, shortened: as §1
# [21] = target: Kdn(a2-3)Gal(b1-4)Glc
# Procedure, shortened: as §1
# [22] = target: Kdn(a2-3)Gal(b1-4)GlcNAc
# Procedure, shortened: as §1
# [23] = target: Kdn(a2-3)Gal(b1-4)[Fuc(a1-3)]GlcNAc
# Procedure, shortened: as §1
# [24] = target: Kdn(a2-6)Gal(b1-4)GlcNAc
# Procedure, shortened: as §1
# [25] = target: Man(a1-2)Man(a1-2)Man(a1-3)Man
# Procedure, shortened: as §1
# [26] = target: Man(a1-2)Man(a1-2)Man(a1-6)[Man(a1-3)]Man
# Procedure, shortened: as §1
# [27] = target: Man(a1-2)Man(a1-3)Man
# Procedure, shortened: as §1
# [28] = target: Man(a1-2)Man(a1-3)[Man(a1-2)Man(a1-6)]Man
# Procedure, shortened: as §1
# [29] = target: Man(a1-2)Man(a1-3)[Man(a1-2)Man(a1-6)]Man(a1-6)[Man(a1-2)Man(a1-2)Man(a1-3)]Man
# Procedure, shortened: as §1
# [30] = target: Man(a1-2)Man(a1-3)[Man(a1-2)Man(a1-6)]Man(a1-6)[Man(a1-2)Man(a1-2)Man(a1-3)]Man(b1-4)GlcNAc(b1-4)GlcNAc
# Procedure, shortened: as §1
# [31] = target: Man(a1-2)Man(a1-3)[Man(a1-6)]Man(a1-6)[Man(a1-2)Man(a1-3)]Man(b1-4)GlcNAc(b1-4)GlcNAc
# Procedure, shortened: as §1
# [32] = target: Man(a1-2)Man(a1-6)[Man(a1-3)]Man(a1-6)[Man(a1-2)Man(a1-2)Man(a1-3)]Man
# Procedure, shortened: as §1
# [33] = target: Man(a1-2)Man(a1-6)[Man(a1-3)]Man(a1-6)[Man(a1-2)Man(a1-2)Man(a1-3)]Man(b1-4)GlcNAc(b1-4)GlcNAc
# Procedure, shortened: as §1
# [34] = target: Man(a1-3)[Man(a1-6)]Man
# Procedure, shortened: as §1
# [35] = target: Man(a1-3)[Man(a1-6)]Man(a1-6)[Man(a1-2)Man(a1-3)]Man(b1-4)GlcNAc(b1-4)GlcNAc
# Procedure, shortened: as §1
# [36] = target: Man(a1-3)[Man(a1-6)]Man(a1-6)[Man(a1-3)]Man
# Procedure, shortened: as §1
# [37] = target: Man(a1-3)[Man(a1-6)]Man(a1-6)[Man(a1-3)]Man(b1-4)GlcNAc(b1-4)GlcNAc
# Procedure, shortened: as §1
# [38] = target: Man(a1-3)[Man(a1-6)]Man(b1-4)GlcNAc(b1-4)GlcNAc
# Procedure, shortened: as §1
# [39] = target: Man(a1-6)Man
# Procedure, shortened: as §1
# [40] = target: Man(b1-4)GlcNAc
# Procedure, shortened: as §1
# [41] = target: Neu5Ac(a2-3)Gal
# Procedure, shortened: as §1
# [42] = target: Neu5Ac(a2-3)Gal(b1-3)GalNAc
# Procedure, shortened: as §1
# [43] = target: Neu5Ac(a2-3)Gal(b1-3)GalNAc(b1-3)Gal(a1-4)Gal(b1-4)Glc
# Procedure, shortened: as §1
# [44] = target: Neu5Ac(a2-3)Gal(b1-3)GalNAc(b1-4)[Neu5Ac(a2-3)]Gal(b1-4)Glc
# Procedure, shortened: as §1
# [45] = target: Neu5Ac(a2-3)Gal(b1-3)GalNAc(b1-4)[Neu5Ac(a2-8)Neu5Ac(a2-3)]Gal(b1-4)Glc
# Procedure, shortened: as §1
# [46] = target: Neu5Ac(a2-3)Gal(b1-3)GalNAc6S
# Procedure, shortened: as §1
# [47] = target: Neu5Ac(a2-3)Gal(b1-3)GlcNAc
# Procedure, shortened: as §1
# [48] = target: Neu5Ac(a2-3)Gal(b1-3)GlcNAc(b1-3)Gal(b1-3)GlcNAc
# Procedure, shortened: as §1
# [49] = target: Neu5Ac(a2-3)Gal(b1-3)GlcNAc(b1-3)Gal(b1-4)GlcNAc
# Procedure, shortened: as §1
# [50] = target: Neu5Ac(a2-3)Gal(b1-3)GlcNAc(b1-3)GalNAc
# Procedure, shortened: as §1
# [51] = target: Neu5Ac(a2-3)Gal(b1-3)GlcNAc6S
# Procedure, shortened: as §1
# [52] = target: Neu5Ac(a2-3)Gal(b1-3)[Fuc(a1-4)]GlcNAc
# Procedure, shortened: as §1
# [53] = target: Neu5Ac(a2-3)Gal(b1-3)[Fuc(a1-4)]GlcNAc(b1-3)Gal(b1-3)[Fuc(a1-4)]GlcNAc
# Procedure, shortened: as §1
# [54] = target: Neu5Ac(a2-3)Gal(b1-3)[Fuc(a1-4)]GlcNAc(b1-3)Gal(b1-4)[Fuc(a1-3)]GlcNAc
# Procedure, shortened: as §1
# [55] = target: Neu5Ac(a2-3)Gal(b1-3)[Neu5Ac(a2-3)Gal(b1-4)]GlcNAc
# Procedure, shortened: as §1
# [56] = target: Neu5Ac(a2-3)Gal(b1-3)[Neu5Ac(a2-6)]GalNAc
# Procedure, shortened: as §1
# [57] = target: Neu5Ac(a2-3)Gal(b1-4)Glc
# Procedure, shortened: as §1
# [58] = target: Neu5Ac(a2-3)Gal(b1-4)GlcNAc
# Procedure, shortened: as §1
# [59] = target: Neu5Ac(a2-3)Gal(b1-4)GlcNAc(b1-2)Man(a1-3)[GlcNAc(b1-2)Man(b1-4)GlcNAc(b1-2)Man(a1-6)]Man(b1-4)GlcNAc(b1-4)GlcNAc
# Procedure, shortened: as §1
# [60] = target: Neu5Ac(a2-3)Gal(b1-4)GlcNAc(b1-2)Man(a1-3)[Neu5Ac(a2-6)Gal(b1-4)GlcNAc(b1-2)Man(a1-6)]Man(b1-4)GlcNAc(b1-4)GlcNAc
# Procedure, shortened: as §1
# [61] = target: Neu5Ac(a2-3)Gal(b1-4)GlcNAc(b1-3)Gal
# Procedure, shortened: as §1
# [62] = target: Neu5Ac(a2-3)Gal(b1-4)GlcNAc(b1-3)Gal(b1-3)GlcNAc
# Procedure, shortened: as §1
# [63] = target: Neu5Ac(a2-3)Gal(b1-4)GlcNAc(b1-3)Gal(b1-4)GlcNAc
# Procedure, shortened: as §1
# [64] = target: Neu5Ac(a2-3)Gal(b1-4)GlcNAc(b1-3)Gal(b1-4)GlcNAc(b1-3)Gal(b1-4)GlcNAc
# Procedure, shortened: as §1
# [65] = target: Neu5Ac(a2-3)Gal(b1-4)GlcNAc(b1-3)Gal(b1-4)[Fuc(a1-3)]GlcNAc
# Procedure, shortened: as §1
binder,measurement,setting,value
B1,glycan array binding signal (z-score),[1],-0.436
same,glycan array binding signal (z-score),[2],-0.38
same,glycan array binding signal (z-score),[3],-0.391
same,glycan array binding signal (z-score),[4],-0.358
same,glycan array binding signal (z-score),[5],-0.257
same,glycan array binding signal (z-score),[6],-0.4
same,glycan array binding signal (z-score),[7],-0.389
same,glycan array binding signal (z-score),[8],-0.346
same,glycan array binding signal (z-score),[9],-0.345
same,glycan array binding signal (z-score),[10],-0.245
same,glycan array binding signal (z-score),[11],-0.363
same,glycan array binding signal (z-score),[12],-0.401
same,glycan array binding signal (z-score),[13],-0.423
same,glycan array binding signal (z-score),[14],-0.407
same,glycan array binding signal (z-score),[15],-0.392
same,glycan array binding signal (z-score),[16],-0.336
same,glycan array binding signal (z-score),[17],-0.366
same,glycan array binding signal (z-score),[18],0.159
same,glycan array binding signal (z-score),[19],-0.04
same,glycan array binding signal (z-score),[20],-0.345
same,glycan array binding signal (z-score),[21],-0.434
same,glycan array binding signal (z-score),[22],-0.376
same,glycan array binding signal (z-score),[23],-0.233
same,glycan array binding signal (z-score),[24],-0.436
same,glycan array binding signal (z-score),[25],-0.406
same,glycan array binding signal (z-score),[26],-0.311
same,glycan array binding signal (z-score),[27],-0.409
same,glycan array binding signal (z-score),[28],-0.44
same,glycan array binding signal (z-score),[29],-0.218
same,glycan array binding signal (z-score),[30],-0.327
same,glycan array binding signal (z-score),[31],-0.403
same,glycan array binding signal (z-score),[32],-0.075
same,glycan array binding signal (z-score),[33],-0.196
same,glycan array binding signal (z-score),[34],-0.205
same,glycan array binding signal (z-score),[35],0.122
same,glycan array binding signal (z-score),[36],-0.393
same,glycan array binding signal (z-score),[37],-0.351
same,glycan array binding signal (z-score),[38],-0.361
same,glycan array binding signal (z-score),[39],-0.294
same,glycan array binding signal (z-score),[40],-0.269
same,glycan array binding signal (z-score),[41],-0.39
same,glycan array binding signal (z-score),[42],-0.337
same,glycan array binding signal (z-score),[43],-0.419
same,glycan array binding signal (z-score),[44],-0.287
same,glycan array binding signal (z-score),[45],-0.155
same,glycan array binding signal (z-score),[46],-0.233
same,glycan array binding signal (z-score),[47],-0.433
same,glycan array binding signal (z-score),[48],0.004
same,glycan array binding signal (z-score),[49],-0.398
same,glycan array binding signal (z-score),[50],-0.316
same,glycan array binding signal (z-score),[51],-0.165
same,glycan array binding signal (z-score),[52],-0.3
same,glycan array binding signal (z-score),[53],-0.252
same,glycan array binding signal (z-score),[54],-0.219
same,glycan array binding signal (z-score),[55],-0.37
same,glycan array binding signal (z-score),[56],-0.082
same,glycan array binding signal (z-score),[57],-0.193
same,glycan array binding signal (z-score),[58],-0.448
same,glycan array binding signal (z-score),[59],-0.392
same,glycan array binding signal (z-score),[60],-0.292
same,glycan array binding signal (z-score),[61],-0.403
same,glycan array binding signal (z-score),[62],-0.457
same,glycan array binding signal (z-score),[63],-0.349
same,glycan array binding signal (z-score),[64],-0.394
same,glycan array binding signal (z-score),[65],-0.235
